Source: paper PMC9911399, “Two distinct binding modes provide the RNA-binding protein RbFox with extraordinary sequence specificity”
Substitutions are numbered along the chain they refer to; changes in the protein carry UniProt numbers. The list shows a part of the results.

T1: RBFOX1 RRM RbFoxmut (Fox-RRM*) (Homo sapiens, UniProt Q9NWB1 109-208, R118D;E147R;N151S;E152T)
T1 sequence: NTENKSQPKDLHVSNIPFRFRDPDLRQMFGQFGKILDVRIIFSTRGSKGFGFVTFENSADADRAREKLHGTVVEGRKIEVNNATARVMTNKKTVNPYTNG

B1: AGUGAUU (DNA:RNA)
RNA: GGGAGACCGGAAUUCAGAUUGUCCAGUGAUUUUAAAUCCCGUCGUAGCCACCA
DNA 1: CAATCTGAATTCCGGTCTCCC
DNA 2: TGGTGGCTACGACGGGATT
B2: UCGAUUU (DNA:RNA)
RNA: B1 RNA with A25U, G26C, U27G, G28A, A29U
DNA 1: CAATCTGAATTCCGGTCTCCC
DNA 2: TGGTGGCTACGACGGGATT
B3: CUGUGGG (DNA:RNA)
RNA: GGGAGACCGGAAUUCAGAUUGUCCCUGUGGGUUAAAUCCCGUCGUAGCCACCA
DNA 1: CAATCTGAATTCCGGTCTCCC
DNA 2: TGGTGGCTACGACGGGATT
B4: CGACGUU (DNA:RNA)
RNA: B1 RNA with A25C, U27A, G28C, A29G
DNA 1: CAATCTGAATTCCGGTCTCCC
DNA 2: TGGTGGCTACGACGGGATT
B5: UCCGAAG (DNA:RNA)
RNA: B1 RNA with A25U, G26C, U27C, U30A, U31G
DNA 1: CAATCTGAATTCCGGTCTCCC
DNA 2: TGGTGGCTACGACGGGATT
B6: UCUUUAC (DNA:RNA)
RNA: B1 RNA with A25U, G26C, G28U, A29U, U30A, U31C
DNA 1: CAATCTGAATTCCGGTCTCCC
DNA 2: TGGTGGCTACGACGGGATT
B7: AAUGCAA (DNA:RNA)
RNA: B1 RNA with G26A, A29C, U30A, U31A
DNA 1: CAATCTGAATTCCGGTCTCCC
DNA 2: TGGTGGCTACGACGGGATT
B8: CUUCUAA (DNA:RNA)
RNA: B3 RNA with G27U, U28C, G29U, G30A, G31A
DNA 1: CAATCTGAATTCCGGTCTCCC
DNA 2: TGGTGGCTACGACGGGATT
B9: GGCGAUU (DNA:RNA)
RNA: B1 RNA with A25G, U27C
DNA 1: CAATCTGAATTCCGGTCTCCC
DNA 2: TGGTGGCTACGACGGGATT

biological target: T1, RBFOX1 RRM RbFoxmut (Fox-RRM*); experiment: EMSA; HiTS-Eq, 1 nM pool, 10 min; buffer printed only for the single-RNA assays: 10 mM Tris pH 7.5, 150 mM NaCl, 3.4 mM EDTA, 0.001% NP-40, 30 C; details: tags: His6 N-terminal (pET28a); label: 5' 32P
Method in brief: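 A pool of RNA with 7 randomized nucleotides, 5′-radiolabelled and with DNA-annealed flanks, was equilibrated at 1 nM for 10 min in 50 µL with purified RbFox RRM, wild type or mutant, across increasing protein concentrations. Free RNA was separated by 8% native PAGE, excised, reverse-transcribed, barcoded by PCR and sequenced. Relative association constants were obtained from read-count changes of each RNA species versus the control reaction and normalised to the cognate motif.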

Row | Binder | binding signal
1 | B1 | 0.102 KA relative to UGCAUGU
2 | B2 | 0.0835 KA relative to UGCAUGU
3 | B3 | 0.0801 KA relative to UGCAUGU
4 | B4 | 0.0858 KA relative to UGCAUGU
5 | B5 | 0.0694 KA relative to UGCAUGU
6 | B6 | 0.0821 KA relative to UGCAUGU
7 | B7 | 0.0626 KA relative to UGCAUGU
8 | B8 | 0.124 KA relative to UGCAUGU
9 | B9 | 0.0737 KA relative to UGCAUGU
